Experiment [1] deals with RNE’ (RNase E residues 378–659) fused to the T18 fragment of adenylate cyclase (pUT18C-rne^378-659) (E. coli) (UniProt P21513). As to the kind of experiment: two-hybrid; bacterial two-hybrid (adenylate cyclase fragments T18 and T25) in BTH101; pKT25 and pUT18C plasmids; blue colour on LB X-Gal plates with 0.5 mM IPTG.
Experiment [2] addresses RNE’ΔA (RNase E residues 378–659 deleted for segment A) fused to the T18 fragment of adenylate cyclase (pUT18C-rne^378-659ΔA) (E. coli) (UniProt P21513). Described as above.
For experiment [3], the target named is His-tagged RNE’, a truncated RNase E protein (residues 378–659) (E. coli) (UniProt P21513). Kind of experiment: far-Western, overlay or dot blot; lysates of BL21(DE3) cells overexpressing His-RNE’ or His-RNE’ΔA separated by SDS-PAGE and blotted onto nitrocellulose; membrane incubated with purified FLAG-MinD in 7.5% skim milk in PBST overnight at 4 °C, then anti-FLAG antibody; only the binder purified.

Amino acid sequences for entries named in this document (tags omitted). A change or cut given only in a name is not applied to a line headed by its entry. Chains listed by the source or under a name are the forms on record and can include a tag or linker. Residues count along the entry.
UniProt P21513: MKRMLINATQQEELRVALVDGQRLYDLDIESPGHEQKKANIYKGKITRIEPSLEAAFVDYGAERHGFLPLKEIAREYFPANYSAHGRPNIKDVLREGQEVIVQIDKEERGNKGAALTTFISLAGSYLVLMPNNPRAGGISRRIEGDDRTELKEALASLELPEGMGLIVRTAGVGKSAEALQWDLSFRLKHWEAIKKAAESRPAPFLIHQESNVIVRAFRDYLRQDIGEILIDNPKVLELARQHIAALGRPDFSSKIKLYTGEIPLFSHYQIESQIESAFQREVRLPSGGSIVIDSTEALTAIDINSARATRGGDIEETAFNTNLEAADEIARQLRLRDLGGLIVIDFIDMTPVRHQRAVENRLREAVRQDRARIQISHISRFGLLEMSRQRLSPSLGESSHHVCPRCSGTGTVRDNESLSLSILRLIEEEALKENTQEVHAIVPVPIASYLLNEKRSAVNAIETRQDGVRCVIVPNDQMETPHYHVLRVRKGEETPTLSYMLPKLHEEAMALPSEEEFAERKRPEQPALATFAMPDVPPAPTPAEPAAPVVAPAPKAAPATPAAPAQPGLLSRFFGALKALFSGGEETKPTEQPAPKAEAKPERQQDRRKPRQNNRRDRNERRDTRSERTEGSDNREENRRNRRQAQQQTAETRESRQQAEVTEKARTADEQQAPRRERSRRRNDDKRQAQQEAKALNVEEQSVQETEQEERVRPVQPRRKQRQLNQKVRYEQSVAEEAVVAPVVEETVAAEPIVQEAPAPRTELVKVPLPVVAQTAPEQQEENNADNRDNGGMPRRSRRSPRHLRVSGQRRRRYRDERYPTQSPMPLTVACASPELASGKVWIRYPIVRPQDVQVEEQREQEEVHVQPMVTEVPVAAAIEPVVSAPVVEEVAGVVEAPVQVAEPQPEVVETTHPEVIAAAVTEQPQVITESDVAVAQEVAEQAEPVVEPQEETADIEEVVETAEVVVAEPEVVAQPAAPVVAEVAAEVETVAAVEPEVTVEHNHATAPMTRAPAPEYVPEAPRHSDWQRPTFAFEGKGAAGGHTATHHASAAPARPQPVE
His-tagged RNE’, a truncated RNase E protein (residues 378–659): residues 378-659 of P21513
UniProt P0AEZ3: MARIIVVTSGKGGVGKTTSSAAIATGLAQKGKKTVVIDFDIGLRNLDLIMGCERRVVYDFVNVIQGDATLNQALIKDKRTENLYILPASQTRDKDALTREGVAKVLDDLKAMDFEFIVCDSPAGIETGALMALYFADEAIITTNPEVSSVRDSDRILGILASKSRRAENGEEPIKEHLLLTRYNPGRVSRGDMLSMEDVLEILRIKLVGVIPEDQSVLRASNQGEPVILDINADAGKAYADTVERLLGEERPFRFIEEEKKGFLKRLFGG

The target of experiment [4] is His-tagged RNE’ΔA, RNE’ deleted for segment A (E. coli) (UniProt P21513). The experiment is described as above.

The values below come from paper PMC10897333.

Results are given in words; binding and its absence hold for the method and conditions named. Some entries that bind do so weakly or less than the wild type.

With “MinD^L194R fused to the T25 domain of adenylate cyclase protein (pKT25-minD^L194R) (from UniProt P0AEZ3 1-270)”, the binding result in experiment [1] was “no binding”.
Same read-out and setting: under “MinD^L48R fused to the T25 fragment of adenylate cyclase (pKT25-minD^L48R) (from UniProt P0AEZ3 2-270)” stands “binds”.
Turning to “MinD fused to the T25 fragment of adenylate cyclase (pKT25-minD) (from UniProt P0AEZ3 1-270)”, the values for the binding result in experiment [1] and in experiment [2] were “binds” and “no binding”, respectively.
For the substance “MinD^V147R fused to the T25 fragment of adenylate cyclase (pKT25-minD^V147R) (from UniProt P0AEZ3 2-270)”, in experiment [1], the binding result is “no binding”.
For “FLAG-tagged MinD (from UniProt P0AEZ3 1-270)”, the binding result in experiment [3] was “binds”; in experiment [4], “no binding”.
